Data as given in US20240376128A1, “N-CYCLOPROPYLPYRIDO [4, 3-D] PYRIMIDIN-4-AMINE DERIVATIVES AND USES THEREOF” (Jacobio Pharmaceuticals Co., Ltd., priority 2021, published 2024).

Experiments:
K-Ras G12V [1] = target: T1, K-Ras G12V (Homo sapiens, UniProt P01116, G12V); assay: SOS1 catalyzed nucleotide exchange assay (GDP form K-Ras), TR-FRET; details: read-out: Biochemical assays, IC50, K-Ras G12V GDP
Description: The parameters were F486: Excitation 340 nm, Emission 486 nm, Lag time 100 pas, Integration time 200 pas; F515: Excitation 340 nm, Emission 515 nm, Lag time 100 pas, Integration time 200 pas. TR-FRET ratios for each individual wells were calculated by equation: TR-FRET ratio=(Signal F515/Signal F486)*10000.

K-Ras G12V [2] = target: T1, K-Ras G12V; assay: GTP-K-Ras (GppNp-K-Ras) and cRAF interaction assay, HTRF; details: read-out: Biochemical assays, IC50, K-Ras G12V GppNp
Excerpt: GppNp is an analog of GTP.

Question: How did the IC50 (K-Ras G12V [1]) turn out when `C#Cc1c(F)ccc2cc(O)cc(-c3ncc4c(N(C)[C@@H]5C[C@H]5OC)nc(OC[C@@]56CCCN5C[C@H](F)C6)nc4c3F)c12` [Compound 41, 5-ethynyl-6-fluoro-4-(8-fluoro-2-(((2R,7aS)-2-fluorotetrahydro-1H-pyrrolizin-7a(5H)-yl)methoxy)-4-((trans-2-methoxycyclo-propyl)(methyl)amino)pyrido[4,3-d]pyrimidin-7-yl)naphthalen-2-ol] was run?
Answer: 25.9 nM

Question: And the IC50 (K-Ras G12V [2])?
Answer: > 1000 nM
